PubChem BioAssay AID2528 (National Center for Advancing Translational Sciences (NCATS), 2010)
In all, about 350,000 compounds went through this assay and about 700 (0.2%) were called active. Calls follow the shape of the dose curve; as a rule, active = well fitted inhibition curve with a large enough effect; inconclusive = small, poorly fitted or top-dose-only effect; inactive = flat fitted curve, though single readings scatter. Only a part is listed here, and it is no random draw.

Target: RecQ-like DNA helicase BLM (Homo sapiens) (UniProt P54132)
Chain of UniProt P54132 (P54132 whole entry, looked up): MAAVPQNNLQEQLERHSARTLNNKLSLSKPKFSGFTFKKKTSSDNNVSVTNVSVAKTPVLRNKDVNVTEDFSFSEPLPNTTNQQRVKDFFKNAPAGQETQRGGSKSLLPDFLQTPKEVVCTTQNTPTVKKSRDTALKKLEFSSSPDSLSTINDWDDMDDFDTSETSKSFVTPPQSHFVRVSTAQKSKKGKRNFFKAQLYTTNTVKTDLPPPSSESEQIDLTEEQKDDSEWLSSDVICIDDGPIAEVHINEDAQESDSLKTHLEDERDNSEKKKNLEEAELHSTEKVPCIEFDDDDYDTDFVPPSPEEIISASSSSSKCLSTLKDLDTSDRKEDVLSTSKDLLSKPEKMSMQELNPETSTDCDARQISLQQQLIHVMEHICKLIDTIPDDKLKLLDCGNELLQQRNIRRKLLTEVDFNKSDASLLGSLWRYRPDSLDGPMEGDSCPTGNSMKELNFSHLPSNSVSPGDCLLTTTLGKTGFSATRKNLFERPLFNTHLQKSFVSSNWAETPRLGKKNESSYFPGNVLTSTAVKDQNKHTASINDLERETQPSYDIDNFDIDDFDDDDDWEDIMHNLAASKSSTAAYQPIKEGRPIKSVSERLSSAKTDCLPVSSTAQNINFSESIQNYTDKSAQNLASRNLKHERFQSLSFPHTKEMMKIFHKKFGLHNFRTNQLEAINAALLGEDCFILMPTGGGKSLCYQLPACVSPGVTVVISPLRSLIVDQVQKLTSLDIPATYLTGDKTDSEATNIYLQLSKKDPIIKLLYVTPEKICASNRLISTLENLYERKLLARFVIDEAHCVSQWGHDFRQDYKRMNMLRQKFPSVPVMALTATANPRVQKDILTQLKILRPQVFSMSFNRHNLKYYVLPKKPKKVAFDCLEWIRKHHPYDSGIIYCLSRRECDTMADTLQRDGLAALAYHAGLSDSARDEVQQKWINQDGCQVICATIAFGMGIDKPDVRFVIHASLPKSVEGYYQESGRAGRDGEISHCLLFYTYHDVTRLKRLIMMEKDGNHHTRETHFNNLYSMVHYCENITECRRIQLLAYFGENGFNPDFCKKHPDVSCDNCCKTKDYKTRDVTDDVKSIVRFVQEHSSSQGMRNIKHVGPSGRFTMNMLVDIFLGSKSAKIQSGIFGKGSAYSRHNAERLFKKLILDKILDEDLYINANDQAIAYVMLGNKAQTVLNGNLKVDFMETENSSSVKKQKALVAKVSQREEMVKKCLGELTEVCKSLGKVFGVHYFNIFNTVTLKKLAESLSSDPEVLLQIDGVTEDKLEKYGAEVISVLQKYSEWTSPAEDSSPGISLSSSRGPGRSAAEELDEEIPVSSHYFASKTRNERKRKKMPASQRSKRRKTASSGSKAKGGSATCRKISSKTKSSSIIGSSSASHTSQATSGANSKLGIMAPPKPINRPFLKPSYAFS
Test: qHTS Assay for Inhibitors of Bloom's syndrome helicase (BLM); also: nearly all actives have a fitted effect of over 35% in size
Settings: recombinant BLM DNA unwinding, fluorescence dequenching; series mostly up to 56.1 µM; activity change, negative = inhibition: at the top concentration
From the text: Survival of cells and the faithful propagation of the genome depend on elaborate mechanisms of detecting and repairing DNA damage. Treatment of advanced cancer relies on radiation therapy or chemotherapy, which kill cancer cells by causing extensive DNA damage. It is often found, that cancer cells develop resistance to therapy through enhanced activity of DNA repair functions; this has led to an increased interest in developing drugs that interfere with DNA repair, which could sensitize cancer cells to conventional therapy.
This validation qHTS assay pertains to human BLM, which is important in resolving abnormal DNA structures formed during replication or homologous recombination. Shutting down the expression of BLM leads to chromosomal instability and higher radiation sensitivity in cultured cells.
The validation assay was a fluorescence quenching based kinetic qHTS for BLM Helicase DNA unwinding. The activity was measured as ATP-dependent separation of a 20-bp DNA duplex extended by 30-nt single-stranded tails (forked duplex). The forked DNA substrate was tagged with rhodamine fluorophore (carboxytetramethyl rhodamine, TAMRA) and BHQ-2 (Black Hole Quencher 2) dark quencher. Strand separation results in an increase in the fluorescence of TAMRA (excitation 525 nm, emission 598 nm). This substrate construct operates in a red-shifted region where very few compound library members have been noted to fluoresce (PubChem AIDs 593 and 594). An additional feature of the assay is the inclusion of 2.5 ug/ml poly (dIdC), to reduce interference by compounds such as DNA intercalators, a major source of false inhibitors.
Ian Hickson, University of Oxford
Opher Gileadi, Structural Genomics Consortium, University of Oxford
Screening Center PI: Austin, C.P.
Screening Center: NIH Chemical Genomics Center [NCGC]
Three uL of reaction buffer (25 mM Tris-HCl (pH 8.0), 5 mM NaCl, 2 mM MgCl2, 1mM DTT, 0.01% Tween- 20, and 2.5 ug/ml poly(dI-dC), including enzyme (50 nM BLM), were dispensed into a 1536-well Greiner black assay plate via solenoid-valve based nanoliter dispensers. Compounds (23 nl each in columns 5-48) and control (23 nl each in column 2 as dose-response) were transferred via a Kalypsys pintool equipped with a 1536-pin array. The plates were incubated for 15 min at room temperature, and then 1 ul of substrates (200 nM DNA and 2 mM ATP, final concentrations) was added to start the reaction. The plate was transferred into a ViewLux high-throughput CCD imager where the reaction progress was measured in a discontinuous kinetic mode (two reads spaced 2 hours apart, with intermediate room temperature incubation of the covered assay plate) by using standard red-fluorescence optics (excitation filter 525 nm, emission filter 598 nm). Enzyme-free and vehicle (DMSO) controls were included for signal normalization.
Potency is read from the fitted curve at half-maximal effect.

| Structure (SMILES) | Potency | activity change, negative = inhibition |
| --- | --- | --- |
| NCC(CC(=O)O)c1ccc(Cl)cc1 (stereo unspecified) | inactive |  |
| NC[C@H](CC(=O)O)c1ccc(Cl)cc1 |  | inactive: -1.14% |
| CCCCC/C=C\C/C=C\C/C=C\C/C=C\CCCCCC(=O)NCCO | inactive |  |
| CC(NC(C)(C)C)C(=O)c1cccc(Cl)c1 (stereo unspecified) | inactive |  |
| CC(C)(C)c1o[nH]c(=O)c1C[C@H](N)C(=O)O |  | inactive: -4.95% |
| O=C(Cc1ccc(Cl)c(Cl)c1)N1CCCC[C@H]1CN1CCCC1 |  | inactive: -1.96% |
| C=C(C)[C@H]1CN[C@H](C(=O)O)[C@@H]1CC(=O)O |  | inactive: -3.94% |
| COc1cc(-c2ccc(=O)[nH]n2)ccc1OC(F)F | inactive |  |
| CCCCCCCCC(=O)NCc1ccc(O)c(OC)c1 | inactive |  |
| CC[C@H](CO)NC(=O)[C@H]1C=C2c3cccc4[nH]cc(c34)C[C@@H]2N(C)C1 |  | inactive: -6.75% [at 21.4 µM] |
| NC(=NCCCC(N)C(=O)O)N[N+](=O)[O-] (stereo unspecified) |  | inactive: 3.32% |
| N#CC(C#N)=Cc1ccc([N+](=O)[O-])c(O)c1 |  | inactive: -6.74% |
| CNC[C@H](O)c1ccc(O)cc1 |  | inactive: 3.74% [at 21.4 µM] |
| CC(C)[C@@]1(NC(=O)[C@@H]2C[C@H]3c4cccc5[nH]cc(c45)C[C@@H]3N(C)C2)O[C@]2(O)[C@H]3CCCN3C(=O)[C@H](Cc3ccccc3)N2C1=O |  | inactive: -0.895% [at 21.4 µM] |
| C/C(=C/CCC(C)[C@H]1CC[C@@]2(C)C3=C(CC[C@]12C)[C@@]1(C)CCC(=O)C(C)(C)[C@@H]1CC3)C(=O)O (stereo partly specified) | active: 25.1 µM |  |
| C[C@H](NC(C)(C)C)C(=O)c1cccc(Cl)c1 |  | inactive: 5.65% [at 21.4 µM] |
| CC(C)(O)[C@@H]1C2OC(=O)[C@@H]1[C@]1(O)C[C@H]3O[C@]34C(=O)O[C@H]2[C@]14C |  | inactive: -4.57% |
| C[C@]12CCC(=O)C=C1CC[C@@H]1C2CC[C@]2(C)C(=O)CCC12 (stereo partly specified) |  | inactive: -4.63% |
| CN[C@H](C)[C@H](O)c1ccccc1 |  | inactive: -5.23% |
| CC(=O)NCCc1c[nH]c2ccccc12 | inactive |  |
| CC(C)c1ccc(N2C(=O)NC(=O)/C(=C/C=C/c3ccco3)C2=O)cc1 |  | inactive: -21.4% |
| C[C@@H](N)[C@@H](O)c1ccc(O)c(O)c1 |  | inactive: 0.868% |
| O=c1[nH]c2ccccc2n1C1CCN(CCCC(c2ccc(F)cc2)c2ccc(F)cc2)CC1 | inactive |  |
| CCCCC/C=C\C/C=C\C/C=C\C/C=C\CCCC(=O)O | inactive |  |
| CC12C=CC(=O)C=C1CCC1C2=CCC2(C)C1CC[C@@H]2C(=O)CN1CCN(c2cc(N3CCCC3)nc(N3CCCC3)n2)CC1 (stereo partly specified) |  | inactive: -14.6% |
| CC(C)C[C@H]1C(=O)N2CCC[C@H]2[C@]2(O)O[C@](NC(=O)[C@@H]3C=C4c5cccc6[nH]c(Br)c(c56)CC4N(C)C3)(C(C)C)C(=O)N12 (stereo partly specified) |  | inactive: -18.5% |

| Structure (SMILES) | Potency | activity change, negative = inhibition |
| --- | --- | --- |
| O[C@H]1CCCC[C@H]1N1CCC(c2ccccc2)CC1 | inactive |  |
| CCNC(=O)[C@@H]1O[C@@H](n2cnc3c(N)ncnc32)[C@H](O)[C@H]1O |  | inactive: -0.191% |
| CC[n+]1c(-c2ccccc2)c2cc(N)ccc2c2ccc(N)cc21 |  | inactive: -7.19% |
| N[C@H](CP(=O)(O)O)C(=O)O |  | inactive: -1.57% |
| CP(=O)(O)CCCN | inactive |  |
| Cc1cccc(OCCn2cccc2/C=C2/C(=O)NC(=O)N(Cc3ccco3)C2=O)c1 | active: 25.1 µM |  |
| O=C(O)CNC(=O)[C@@H](CS)Cc1ccccc1 |  | inactive: -1.54% [at 21.4 µM] |
| C[C@H]1O[C@H]1P(=O)(O)O | inactive |  |
| N[C@H]1C[C@H]1c1ccccc1 |  | inactive: 3.91% [at 21.4 µM] |
| O=c1[nH]cnc2[nH]ncc12 | inactive |  |
| CC(C)(O)C1C2OC(=O)C1C1(O)CC3OC34C(=O)OC2C14C (stereo unspecified) |  | inactive: 1.29% |
| Cc1cc(O)c2c(c1)C(=O)c1cc(O)cc(O)c1C2=O |  | inactive: -19% |
| CNC(=O)Oc1ccc2c(c1)[C@]1(C)CCN(C)[C@@H]1N2C | inactive |  |
| CC(=O)N1CCN(c2ccc(OC[C@@H]3CO[C@@](Cn4ccnc4)(c4ccc(Cl)cc4Cl)O3)cc2)CC1 |  | inactive: 1.83% |
| O=c1c2ccccc2nc(/C=C/c2ccc(O)cc2)n1-c1cccc(O)c1 | active: 25.1 µM |  |
| CCC(CO)NC(=O)C1C=C2c3cccc4[nH]cc(c34)CC2N(C)C1 (stereo unspecified) | inactive |  |
| N[C@@H](Cn1cc(I)c(=O)[nH]c1=O)C(=O)O |  | inactive: 0.248% |
| O=c1c(O)c(-c2ccc(O)c(O)c2)oc2cc(O)cc(O)c12 | inactive |  |
| CC(C)NC[C@H](O)COc1cccc2[nH]ccc12 | inactive |  |
| CNCC(O)c1ccc(O)cc1 (stereo unspecified) |  | inactive: 1.08% |
| CC(=O)C1CC[C@H]2C3CC[C@@H]4CC(O)CC[C@@]4(C)C3CC[C@]12C (stereo partly specified) |  | inactive: -6.83% |
| c1ccc(CCCN2CCN(CCOC(c3ccccc3)c3ccccc3)CC2)cc1 |  | inactive: -4.74% |
| CC(C)C[C@H]1C(=O)N2CCC[C@H]2[C@]2(O)O[C@](NC(=O)[C@@H]3C=C4c5cccc6[nH]c(Br)c(c56)C[C@H]4N(C)C3)(C(C)C)C(=O)N12 |  | inactive: -10.5% |
| CCN(CC)C(=O)N[C@@H]1C[C@H]2c3cccc4[nH]cc(c34)C[C@@H]2N(C)C1 | inactive |  |
| Cc1cccc2c3c(ccc12)C1=C(C(=O)C3=O)[C@@H](C)CO1 |  | inactive: -9.54% |
